Data on three compounds can be found in patent US7745619B2, “Vinca derivatives” (priority 2003, dated 2010).

Like-named read-outs stand apart in the source and are kept apart here. Some results are limits rather than exact numbers.

For this test, the system named is NCI-H322M. In words: cells. The conditions noted are these: Homo sapiens. The text has this: The following data in Table 4 summarize the growth inhibition properties of several compounds of the present invention against 60-human transformed cell lines.

What is called GI50 is the concentration that inhibits growth by half.

For `C#Cc1ccc2[nH]c3c(c2c1)CCN1C[C@H](C[C@@](O)(CC)C1)C[C@]3(C(=O)OC)c1cc2c(cc1OC)N(C)[C@H]1[C@@](O)(C(=O)OC)[C@H](OC(C)=O)[C@]3(CC)C=CCN4CC[C@]21[C@@H]43` [Example 17, 12′-ethynylvinblastine], the GI50 (read-out: GI50) is < 10 nM.

With `CC[C@]1(O)C[C@H]2CN(CCc3c([nH]c4ccc(C#Cc5ccccc5)cc34)[C@@](C(=O)OC)(c3cc4c(cc3OC)N(C)[C@H]3[C@@](O)(C(=O)OC)[C@H](OC(C)=O)[C@]5(CC)C=CCN6CC[C@]43[C@@H]65)C2)C1` [Example 19, 12′-(2-phenylethynyl) vinblastine], the GI50 turned out to be 429 nM.

`CCCC(=O)/C=C/c1ccc2[nH]c3c(c2c1)CCN1C[C@H](C[C@@](O)(CC)C1)C[C@]3(C(=O)OC)c1cc2c(cc1OC)N(C)[C@H]1[C@@](O)(C(=O)OC)[C@H](OC(C)=O)[C@]3(CC)C=CCN4CC[C@]21[C@@H]43` [Example 29, 12′-(3-oxohex-1-enyl)vinblastine] came in with a GI50 of 955 nM.
